The source of these data is PubChem BioAssay (NCI).

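Cultured in 96-well plates, cells were exposed to test compound for 48 hours across five concentrations. GI50 is the concentration that inhibits growth by half. TGI marks complete inhibition of growth.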

The assay concerns NCI-H322M lung. The experiment in a line: NCI tumour cell line growth inhibition, 48 h.

Turning to `C#CCNC1CCC(c2csc(C#C)n2)=C1C` (configuration not stated), the GI50 is 23.5 µM and the TGI was above 100 µM.
